The campaign covered roughly 48,000 compounds. About 1,200 (2.5%) were called active. Another 2% or so got no clear call; they are omitted.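 How the source made its calls: active means activation of at least 60% and not above a set upper limit (about 1 call in 100 departs from these limits); inconclusive means activation of 40% to 60%, or above that upper limit; inactive means activation under 40%.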 This is one part of the list.
These molecules were tested against Probable G-protein coupled receptor 32 (Homo sapiens) (UniProt O75388) (assay: qHTS for Agonists of Human Resolvin D1 Receptor DRV1). Conditions: CHO-K1 GPR32 beta-arrestin PathHunter luminescence, 90 min; at 76.9 µM; active compounds read high; zero percent set by DMSO-only wells.
Chain of UniProt O75388 (O75388 whole entry, looked up): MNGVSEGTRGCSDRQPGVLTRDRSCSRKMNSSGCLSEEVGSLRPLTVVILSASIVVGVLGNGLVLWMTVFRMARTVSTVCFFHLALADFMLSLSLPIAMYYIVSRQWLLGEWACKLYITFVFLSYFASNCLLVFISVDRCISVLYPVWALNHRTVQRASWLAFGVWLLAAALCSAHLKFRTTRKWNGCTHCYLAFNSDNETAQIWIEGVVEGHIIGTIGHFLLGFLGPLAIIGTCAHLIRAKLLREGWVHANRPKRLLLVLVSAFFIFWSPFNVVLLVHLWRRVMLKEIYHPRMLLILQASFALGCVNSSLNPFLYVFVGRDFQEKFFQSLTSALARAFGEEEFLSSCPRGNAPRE
Procedure, shortened: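 CHO-K1 cells stably expressing ProLink-tagged GPR32 and Enzyme Activator-tagged beta-arrestin were seeded at 2,500 cells/well overnight, exposed to compounds for 90 min at 37 °C, then read by beta-Gal complementation chemiluminescence after 1 h detection reagent.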
Further: 0% is about no effect.

Row | SMILES | activation
1 | CC(=O)[C@H]1CC[C@H]2[C@@H]3CCC4=CC(=O)CC[C@]4(C)[C@H]3CC[C@]12C | inactive: -0.774%
2 | Cc1ccc2cc3cc(C(=O)N(C)c4ccccc4C)oc3nc2c1 | inactive: -18%
3 | CCn1cc(C(=O)Nc2ccc(C(C)C)cc2)c2cc(OC)c(OC)cc2c1=O | inactive: 0.557%
4 | CCc1cccc(N2C(=O)N(Cc3c(F)cccc3Cl)c3ccccc3S2(=O)=O)c1 | inactive: -25.2%
5 | CCc1cnc2c(c1SCCC(C)C)c(=O)n(C)c(=O)n2C | inactive: -23.8%
6 | CCOC(=O)c1ccc(NC(=O)c2c(NCc3cc(OC)ccc3OC)sc3c2CCC3)cc1 | inactive: -17.7%
7 | Cc1cccc(C)c1NC(=O)CN1C(=O)c2ccccc2Sc2ncccc21 | inactive: 0.0212%
8 | CC(=O)N1CCN(c2ccc(OC[C@H]3CO[C@](Cn4ccnc4)(c4ccc(Cl)cc4Cl)O3)cc2)CC1 | inactive: 2.77%
9 | CC(C)OCCCNC(=O)c1nn(C)c2c1CSc1ccccc1-2 | inactive: -7.37%
10 | CCCOC(=O)c1ccc(Nc2c(C(=O)OCC)cnc3c(C)cc(Cl)cc23)cc1 | inactive: -20.8%
11 | COc1ccc(-c2noc(CSc3nnc(-c4ccccc4)n3C)n2)cc1 | inactive: 7.73%
12 | CC(=O)c1cc(-c2ccccc2)n(CC(=O)NCc2ccccc2C)c1C | active: 79.7%
13 | COC(=O)c1cc2sc(C)cc2n1CC(=O)Nc1ccc(C)cc1Cl | inactive: -11.6%
14 | COc1ccc(C)cc1NC(=O)CN1CCN(S(=O)(=O)c2ccc(Br)cc2)CC1 | inactive: -7.9%
15 | Cc1oc2c(cc(NS(=O)(=O)c3ccc(F)cc3)c3ccccc32)c1C(=O)OCc1ccccc1 | inactive: 24.4%
16 | COc1ccc(C(=O)N2CCN(c3nc4c(C)c(Cl)ccc4s3)CC2)c(OC)c1 | inactive: -5.07%
17 | CCOc1ccc(NC(=O)CN(C)S(=O)(=O)c2ccc3[nH]c4c(c3c2)CCCC4)cc1 | inactive: 20.6%
18 | Cc1cc(-c2ccc(S(=O)(=O)Nc3cccc(Cl)c3C)cc2)on1 | inactive: -6.26%
19 | COc1cc(OC)c(OC)cc1/C=C/c1nc2ccccc2c(=O)n1-c1ccc(Br)c(C)c1 | inactive: -3.28%
20 | Cc1cc(C(=O)Nc2cccc(C)c2C)c2c(C)nn(-c3cccc(F)c3)c2n1 | inactive: -6.93%
21 | Cc1ccc(NC(=O)Cn2c(=O)ccc3cc(S(=O)(=O)N4CCCC4)ccc32)cc1N(C)C | inactive: -7.65%
22 | O=C(c1ccc(Cl)cc1)c1cn(Cc2ccccc2)c2cc3c(cc2c1=O)OCCO3 | inactive: -11%
23 | Cc1ccc(Cl)cc1N1CCN(C(=O)C2CCCN(Cc3nc(-c4cccc(Cl)c4)oc3C)C2)CC1 (centres undefined) | inactive: 7.53%
24 | CCCCNc1nc2c(c(=O)n(Cc3ccccc3)c(=O)n2C)n1C | inactive: -6.66%
25 | COc1ccc(N(C)C(=O)c2cc3c(s2)-c2ccccc2OC3)cc1 | inactive: -21.1%
26 | COc1ccc(CCNC(=O)C(=O)NCC(c2cccnc2)N2CCN(c3ccccc3)CC2)cc1 (centres undefined) | inactive: 6.29%
27 | CCC(C(=O)NCCc1ccc(Cl)cc1)n1ccc2cc(S(=O)(=O)N3CCCCC3)ccc21 (centres undefined) | inactive: -6.34%

Row | SMILES | activation
28 | O=C(NCc1ccc(Cl)cc1)c1ccc2c(c1)N(Cc1ccccc1F)C(=O)c1ccccc1S2=O (centres undefined) | inactive: -14.2%
29 | CCc1ccc(CNC(=O)c2ccc(CS(=O)(=O)Cc3cccc(C)c3)o2)cc1 | inactive: -8.61%
30 | CCn1c(=O)cc(SCC(=O)NCc2ccc(C)cc2)c2ccccc21 | active: 69.3%
31 | O=C(NCc1ccco1)c1ccc2c(c1)N(Cc1ccccc1F)C(=O)c1ccccc1S2(=O)=O | inactive: -37.1%
32 | C=Cc1ccc(Cn2c(=O)n(CC3CCC(C(=O)NC(C)C)CC3)c(=O)c3sccc32)cc1 (centres undefined) | inactive: 15.1%
33 | CCOc1ccccc1-c1nc(C(N)=O)c2c(n1)n(-c1ccc3c(c1)OCO3)c(=O)n2C | inactive: -7.3%
34 | CC(=O)Nc1ccc(S(=O)(=O)N(Cc2ccccc2)Cc2ccccc2)cc1 | inactive: 12.9%
35 | COc1cccc(NC(=O)CCN2CCN(CCO)CC2)c1 | inactive: 11%
36 | COc1cccc(-c2ccc3c(N)c(C(=O)Nc4ccccc4C)sc3n2)c1 | inactive: -17%
37 | CCCCNC(=O)c1ccc2c(c1)NC(=O)C(CS(=O)(=O)Cc1ccc(F)cc1Cl)N2 (centres undefined) | inactive: -7.67%
38 | CCCC(=O)Nc1ccc2nc(SCc3ccc(C)cc3)sc2c1 | inactive: 8.29%
39 | CC(C)CCNC(=O)c1ccc2c(c1)nc1n2CCCCC1 | inactive: -8.28%
40 | COCCNc1ccc(-c2nc(-c3ccccn3)no2)cc1[N+](=O)[O-] | inactive: -0.0064%
41 | COc1ccc(C)cc1NC(=O)Cc1c(C(=O)O)c(C)cn1C | inactive: -5.79%
42 | Nc1ccc2oc(Cc3ccc(Cl)cc3)nc2c1 | inactive: -17.8%
43 | CCCN1CCN(CCCNC(=O)c2ccc(CS(=O)c3ccc(OC)cc3)o2)CC1 (centres undefined) | inactive: -4.11%
44 | CCN(CC)CCNC(=O)c1cc2c(=O)oc3ccc(C)cc3c2s1 | active: 67.3%
45 | CCCN(CCC)C(=O)CSc1nnc2cc(C)c3ccccc3n12 | inactive: 10.3%
46 | O=C(/C=C/c1ccc(Cl)cc1)Nc1nc(-c2cccs2)ns1 | inactive: 25.1%
47 | Cc1cc(C)c(Cn2c3ccccc3c3cnn(CC(=O)NCC(C)c4ccccc4)c(=O)c32)c(C)c1 (centres undefined) | inactive: -15.7%
48 | Cc1ccc(NC(=O)Cn2nnc3sc4c(c3c2=O)CCCC4)c(C)c1 | inactive: -3.29%
49 | CCn1cc(C(=O)NCc2ccc(F)cc2)c(=O)c2cc(S(=O)(=O)N(C)C)ccc21 | inactive: -1.45%
50 | CC(=O)N1CCCc2cc(S(=O)(=O)N(Cc3ccccc3)C(C)C)ccc21 | inactive: 1.7%
51 | COc1ccc(-n2c(CCC(=O)O)ccc2-c2ccccc2)c(OC)c1 | inactive: 24.2%
52 | COc1cc(OC)c(NC(=O)CCNS(=O)(=O)c2ccc3c(c2)oc(=O)n3C)cc1Cl | inactive: 8.23%
53 | CCOC(=O)c1ccccc1NC(=O)c1nn(C)c2c1COc1ccccc1-2 | inactive: -15.8%
54 | CC(=O)Nc1cccc(NC(=O)C(=O)NCCc2csc3nc(-c4ccccc4F)nn23)c1 | inactive: 9.92%

From PubChem BioAssay AID1346428 (National Center for Advancing Translational Sciences (NCATS), 2018)
